Experimental data: patent US20250051463A1, “CD123 ANTIBODY-DRUG CONJUGATES AND METHODS OF USING THE SAME” (ASTRAZENECA AB, priority 2023, published 2025)

Tests used:
cynomolgus IL3Rα = assay: Biolayer interferometry binding (Octet RED384)
Method: (§1) The affinity of CD123 antibodies described herein was determined using Biolayer interferometry.
(§2) Biolayer interferometry binding experiments were performed using an Octet RED384 instrument, with all measurements made at 30° C. AHC biosensor probes were soaked in kinetics buffer (PBS pH 7.2+0.02% Tween-20, 0.1% BSA, 0.05% sodium azide) for 10 minutes, followed by baseline signal measurement in kinetics buffer for 60 seconds. Antibody HT12-GL was loaded from a 2 μg/mL solution onto AHC biosensors for 120 sec. For binding to hIL3-Rα, the antibody-loaded biosensor tips were dipped in binding buffer for 60 sec (baseline), followed by immersion in a solution containing dilutions of hIL3-Rα (10-0.16 μg/mL) for 300 sec (association), and subsequent immersion in kinetics buffer for 400 sec (dissociation). For binding to hIL5-Rα and GM-CSFRa, all steps were the same except the concentration of antigen was increased (50-1.56 μg/mL) and the dissociation step was decreased to 300 sec. The signal from a buffer only reference sample was subtracted, and all curves were fit with a 1:1 binding model to determine KD values. […] HT12-GL also bound cynomolgus IL3Rα (FIG. 3G).

hIL3-Rα = target: T1, hIL3-Rα (Homo sapiens, UniProt P26951); assay: Biolayer interferometry binding (Octet RED384); conditions: in words
T1 sequence (P26951 19-378): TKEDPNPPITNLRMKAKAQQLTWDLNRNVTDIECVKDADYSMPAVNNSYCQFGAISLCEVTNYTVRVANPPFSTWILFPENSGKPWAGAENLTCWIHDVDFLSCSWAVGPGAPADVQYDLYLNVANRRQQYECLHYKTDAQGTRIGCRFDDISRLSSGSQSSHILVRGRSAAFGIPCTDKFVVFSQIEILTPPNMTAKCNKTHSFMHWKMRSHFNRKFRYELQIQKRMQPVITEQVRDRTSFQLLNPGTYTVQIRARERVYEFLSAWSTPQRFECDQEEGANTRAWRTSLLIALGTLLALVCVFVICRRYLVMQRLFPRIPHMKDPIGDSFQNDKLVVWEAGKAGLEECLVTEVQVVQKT
Method: as §1, §2

[1] = system: IL-3 dependent proliferation of TF-1; assay: TF-1 cell proliferation (CellTiter-Glo); format: cell-based; conditions: 10 μg/ml antibody, IL-3 1 ng/ml, 3 days
Method: The erythroleukemia cell line TF-1 that can proliferate only in the presence of one of the following growth factors, either IL-3 or GM-CSF was used. TF-1 cells were washed with RPMI and cultured overnight in the complete RPMI media (RPMI-1640, 10% fetal bovine serum) without any growth factor. To block Fc receptors on the cell surface, cells were incubated with human Fc block at RT for 5-10 mins. Cells were spun at 1300 rpm for 5 mins and were plated at 8,000 cells per well in complete media in either the presence or absence of 10 μg/ml of anti CD123 antibodies (HT12 and J13) or control antibodies (NIP228, 9F5). A growth factor, either IL-3 (1 ng/ml) or GM-CSF (2 ng/ml), was added to the cells to initiate proliferation. […] Cell viability was measured by CellTiter-Glo® (CTG) Luminescent cell Viability Assay. […] Then the absorbance was measured by Envision luminescence reader. The relative cell number in each well was calculated by dividing the value of each sample treated with an antibody by the average values of wells with the untreated cells (control). […]
To measure the concentration of antibody needed for IL3 inhibition, TF-1 cells were seeded at 8,000 cells per well and antibodies were added at a 10 point dilution starting at 10 μg/ml. […] The relative cell number in each well was determined by Cell Titre Glo as described above.

[2] = system: GM-CSF mediated proliferation of TF-1; assay: TF-1 cell proliferation (CellTiter-Glo); format: cell-based; conditions: 10 μg/ml antibody, GM-CSF 2 ng/ml, 3 days
Method: The erythroleukemia cell line TF-1 that can proliferate only in the presence of one of the following growth factors, either IL-3 or GM-CSF was used. TF-1 cells were washed with RPMI and cultured overnight in the complete RPMI media (RPMI-1640, 10% fetal bovine serum) without any growth factor. To block Fc receptors on the cell surface, cells were incubated with human Fc block at RT for 5-10 mins. Cells were spun at 1300 rpm for 5 mins and were plated at 8,000 cells per well in complete media in either the presence or absence of 10 μg/ml of anti CD123 antibodies (HT12 and J13) or control antibodies (NIP228, 9F5). A growth factor, either IL-3 (1 ng/ml) or GM-CSF (2 ng/ml), was added to the cells to initiate proliferation. Cells were incubated at 37° C. in a humidified 5% CO2 incubator for 3 days. Cell viability was measured by CellTiter-Glo® (CTG) Luminescent cell Viability Assay. CTG reagent was added into the wells at equal volume and the plates were shaken at room temperature for 10 minutes. Then the absorbance was measured by Envision luminescence reader. The relative cell number in each well was calculated by dividing the value of each sample treated with an antibody by the average values of wells with the untreated cells (control). […] Isotype antibody had no effect on cell proliferation.

B1: J13: anti-CD123 antibody, VH SEQ ID NO: 15, VL SEQ ID NO: 16 (antibody, V domains shown)
VH: EVQLVESGGGLVQPGGSLRLSCVVSGFTFSSYAMSWVRQAPGKGLEWVSAISGSGDSTYYADSVKGRFTFSRDNSKNTLYLQMNSLRAEDTAVYYCTKDRGFYYGMDVWGQGTMVTVSS
VL: [here about 100 residues without letters]FGQGTRLEIK
modifications: J13 VH; J13 VL
binding to cynomolgus IL3Rα (cynomolgus IL3Rα): showed affinity
binding to human IL3Rα (hIL3-Rα): showed affinity
inhibition of IL-3 dependent proliferation of TF-1 [1]: to a lesser extent
inhibition of GM-CSF mediated proliferation of TF-1 [2]: not
